Measured values: publication PMC6609622, “Poly(ADP-ribose) polymerase-1 antagonizes DNA resection at double-strand breaks”
Entries with a single value are a further part of the results.

Test system: EXO1 (human)
Test: single-molecule DNA curtains
Conditions: EMSA: 20 mM Na-HEPES pH 7.5, 0.1 mM DTT, 0.05% Triton X-100, 100 ug/mL BSA, 5 mM MgCl2, 2 mM ATP, 100 nM DNA, 37 C 10 min, then 0.2% glutaraldehyde 15 min

Substance: lambda DNA curtain substrate with 78-nt 3' overhang
- binding signal (% EXO1 loading per PARP-bound DNA end) (DNA end pre-bound by PARP-1): 2.4
- binding signal (% EXO1 loading per PARP-bound DNA end) (DNA end pre-bound by PARP-2): 91.8
